# Experimental data: PMC12136788
# This is one part of the list.
# B1: chr7:114979563:114979664:+|CDS|ENSG00000135272|unk|FALSE|unique (ssRNA)
# RNA: GGGAGUUCUACAGUCCGACGAUCCCAACCUCAGCGCUUGCCUCAGCUUCAGACUUCAGCCCAGGUGCCAAGUGGUGAGGAAAUAGGCAAGAUAAAGAACGGCCACACAGGUCUGAGCAAUGGAAAUGGAAUUCACCACGGGGCCAACAGAGGAUUGAGCAUCA
# B2: chr8:103427116:103427218:+|CDS|ENSG00000164934|unk|FALSE|bound_elsewhere (ssRNA)
# RNA: GGGAGUUCUACAGUCCGACGAUCGUAUACUGGGAUUGAUCAUCACUGGAAAGAAGCUGUUUUUGCCACAUGUGGACAGCAAGUAGACAUUUGGGAUGAACAAAGAACUAAUCCUAUAUGUUCAAUGACCUGGGGAUUUGACAGCAACAGAGGAUUGAGCAUCA
# B3: chr17:82057505:82058235:-|three_prime_utr|ENSG00000169718|control|control|control (ssRNA)
# RNA: GGGAGUUCUACAGUCCGACGAUCUUGGGGCCAGUGGGGGCUUCUGAACAACAGGAUACAUCUAAAUGAAGGCAGCAUCUGGGUAGACAAAAGUGGGGGCUUAGGUCCCCUCCCCACCUCCCCUAGGCGCCUCCAUAGGCAAGUCAACAGAGGAUUGAGCAUCA
# B4: chr21:39174768:39175664:-|three_prime_utr|ENSG00000183527|control|control|control (ssRNA)
# RNA: GGGAGUUCUACAGUCCGACGAUCUUGAUGACAACAAAUGAGAUUCAGAGUAACAUUUAUACAUGAUCUUAAACAUUGUUUUGUAGUGUAUAUUACUUGUCCAUUCCUUUAAGGGGAGCAGCCUGCACUCUUUUGUAGAUUACUCAACAGAGGAUUGAGCAUCA
# B5: chr12:49763637:49763739:+|3pUTR|ENSG00000139644|msi1_unk|FALSE|overlapping (ssRNA)
# RNA: GGGAGUUCUACAGUCCGACGAUCAUGUGUAUCAAGGUACAGCAUCGUAGGGUUCCCCUAAACUUGCCCUGUUUUUGUUUUUUUAGUUUGUUAUCCCCUUACUGAGCGGCCUCUACUAGGUGGCUGUGAUUAAAUGUCCCAAGCCAACAGAGGAUUGAGCAUCA
# B6: chr2:216674409:216674600:-|3pUTR|ENSG00000115461|msi1|total|mutant (ssRNA)
# RNA: GGGAGUUCUACAGUCCGACGAUCUCAUGGCAUGACACAGCGGAGACCGCCUCCAACAACGAAUUUGGGGCUACGAAGAGGAACCGCGAAAAAGCAAAUCUGUUUCAACUGAUGGGAACCCUACCGCUACCGAACUUGGGGGCUCAACAGAGGAUUGAGCAUCA
# B7: ENSG00000088387:stop:overlap|stop_codon|ENSG00000088387|stop_codon|NA|stop_codon (ssRNA)
# RNA: GGGAGUUCUACAGUCCGACGAUCACGCUCCAUGCUCUUGUGGGCUUCUCUCCACCAUCACUCUGAAAGUGUCUUGGAGCCAAUAGUUGGUGAACGUGUCACACUUGUGUGGUAGGACCUUGAAGUCUAAGUUGCUUUCCUGAGCAACAGAGGAUUGAGCAUCA
# B8: chr1:68475836:68475940:-|3pUTR|ENSG00000024526|unk|FALSE|unique (ssRNA)
# RNA: GGGAGUUCUACAGUCCGACGAUCAUGCCCAGGGCCUAACUUACACUAAUUAAAUCUGAAUUUUGGGGAUGUUGUAUAGGGAUUAGUAUUUUUUUUAAUCUAGGUGAUUCCAAUAUUCAGCCAACUGUGAGAAUCAAUGGCCUACAACAGAGGAUUGAGCAUCA
# B9: chr10:99879964:99880065:-|CDS|ENSG00000107554|unk|FALSE|bound_elsewhere (ssRNA)
# RNA: GGGAGUUCUACAGUCCGACGAUCCAGAUGCCCUUCAGACCCAGACUCCACCUCCCAGCCAAGGUCAGGGGACUCUGCAGAUGUAGCUAGAGAUGUAAAGCAACCCACUGCCACGCCGAGGAGCUACCGGAACUUCAGGCAUCCCAACAGAGGAUUGAGCAUCA
# B10: chr1:228494639:228494729:+|3pUTR|ENSG00000168159|msi1_unk|total|mutant (ssRNA)
# RNA: GGGAGUUCUACAGUCCGACGAUCGCCAUCGUGUCUCAUCUUGCUGUUAUCUCCCGCUCUUUCCCUCCUCCCAUUUCCUUCCGCCGUUGAAUUUUGCAAAGCUUGCCGCAGCCGCUCAGUUGCCUGCAGCAUCCUUGUGUGCCGCAACAGAGGAUUGAGCAUCA
# B11: chr15:49644301:49644402:+|3pUTR|ENSG00000104047|msi1|FALSE|unique (ssRNA)
# RNA: GGGAGUUCUACAGUCCGACGAUCAAUAAUUGAAGCCUACCUGCUAGUGGCCAUCUCUGCUGCCAGGUGAAAAGAGCCUGACUUAGAAUGAAGUCAGCGAAGGAAAGCAGAGUGGAGAGAAAAAGAGAGACUGAGUCCUGAUGACAACAGAGGAUUGAGCAUCA
# B12: chr11:35726083:35726184:+|CDS|ENSG00000166326|msi1|FALSE|bound_elsewhere (ssRNA)
# RNA: GGGAGUUCUACAGUCCGACGAUCGAGGCAAUGGCCACAGCUCAUGUGACUGAGAUACUGGCAGACAUCCAAUCCCACAUGGAUAGGUUGAUGACUCAGAUGGCCCAAGCCAAGGAACAACUUGAUACCUCUAAUGAAUCAGCUCAACAGAGGAUUGAGCAUCA
# B13: chr2:206003504:206003605:-|3pUTR|ENSG00000114933|msi1|FALSE|unique (ssRNA)
# RNA: GGGAGUUCUACAGUCCGACGAUCGGUCGUGUGAGUAGCACAACCUUUUUCUGCUAAAAGUUAGCCCAAGAAGAAACAGAACAUAGAAAGCUUGGAUUCCCGUCAGUGAGGUAGGGAUGUCCUAAAAAGCUUGCCUGGGAUGACCAACAGAGGAUUGAGCAUCA
# B14: ENSG00000196510:stop:overlap|stop_codon|ENSG00000196510|stop_codon|NA|stop_codon (ssRNA)
# RNA: GGGAGUUCUACAGUCCGACGAUCUCCUUGUAGCUGUCAAUGAGUAUCAGGAGGCAAUGGACCAGUAUAGUAUAGCACUAAGGUAGGCACUAGCCUCCCUUGGGGGAAGGCCACUGAGGAGGGUAGAGGAGGCAGUGAGCUGUGCAACAGAGGAUUGAGCAUCA
# B15: ENSG00000124766:be:win_801|CDS|ENSG00000124766|bound_else_gene|NA|bound_elsewhere_windowed (ssRNA)
# RNA: GGGAGUUCUACAGUCCGACGAUCCUCGGCCUCCGCCUCCUCGGCAGCCUCGGCCUCCGCAGCGCUCGCGGCCCCGGGCAAGCACCUGGCGGAGAAGAAGGUGAAGCGCGUCUACCUGUUCGGCGGCCUGGGCACGUCGUCGUCCAACAGAGGAUUGAGCAUCA
# B16: chr12:79451877:79451978:+|3pUTR|ENSG00000067715|msi1|FALSE|unique (ssRNA)
# RNA: GGGAGUUCUACAGUCCGACGAUCCCUUCAUUUUUGAUGAGGUGAUUUAAAUUUUGUUUCACUUUGUGUAGUGAAUUCCACAGUAGUUUUCUGAUUGUUGUUAAAAAUGACUUAACAUAUUACACAGAUAUUCAAUAAAAAUGUCAACAGAGGAUUGAGCAUCA
# B17: chr1:109011400:109011505:-|CDS|ENSG00000085433|unk|FALSE|unique (ssRNA)
# RNA: GGGAGUUCUACAGUCCGACGAUCGUCAUGGUUGCAGAAUUCAUCCCUGCUGAUAGGAAGCUAAGUGAAGCUGGUUUUAAGGCUAGUAACAAUCGUUUAUUUCAGCUUGUAAUGAAAGGCCUGCUUUAUGAAUGCUGUGUAGAACAACAGAGGAUUGAGCAUCA
# B18: chr12:6238009:6238110:+|3pUTR|ENSG00000010278|msi1_unk|FALSE|overlapping (ssRNA)
# RNA: GGGAGUUCUACAGUCCGACGAUCAUAAAAGCUGAAGUUACUUUAUGUUUGUCUUUUAAUGCUUCAUUCAAUAUUGACAUUUGUAGUUGAGCGGGGGGUUUGGUUUGCUUUGGUUUAUAUUUUUUCAGUUGUUUGUUUUUGCUUCAACAGAGGAUUGAGCAUCA
# B19: chr1:54031757:54031935:-|3pUTR|ENSG00000116209|msi1|total|mutant (ssRNA)
# RNA: GGGAGUUCUACAGUCCGACGAUCUCCGCUAUGAGCUGAUCAUUGCUCCUUCUCACCUCCUGCCAUGAUACUGUCAGUUACCUCCGUUAACAAGCUGAAUAUUCCGCCGAAAUGAUGCUUCUGCUCAGGAAUGGCCCACAAAUCCAACAGAGGAUUGAGCAUCA
# B20: chr15:50499333:50499363:+|3pUTR|ENSG00000138592|msi1_unk|FALSE|overlapping (ssRNA)
# RNA: GGGAGUUCUACAGUCCGACGAUCCAGGUACCAUUUAUUUCAAAACAACUUUUUUAGUCUGCUCCAAAGUUAAAAUAAUUAACUAGCUAAGCAUUAUUAUUCGACUGGUCUAAAAACUAUUGUUAUCUUUUUUUUUUCCUUUUCCAACAGAGGAUUGAGCAUCA
# B21: ENSG00000070961:be:win_4151|3pUTR|ENSG00000070961|bound_else_gene|NA|bound_elsewhere_windowed (ssRNA)
# RNA: GGGAGUUCUACAGUCCGACGAUCGAUGGGAAGCUUCCUUAUAACUGAUGCAGAGAAAAAUUAGUCCUUCAAAUACUGCUGUAUUUUCAGGAAAAAAAAAAAAAGGGGUGUUUCUAUUGAAACUGUACUAAAUUUUUGCCUACACAACAGAGGAUUGAGCAUCA
# B22: chr3:183812448:183812549:+|3pUTR|ENSG00000163872|msi1|FALSE|unique (ssRNA)
# RNA: GGGAGUUCUACAGUCCGACGAUCUAUUGCAGGUAUCACAGCCUAAAGAAAUUAUCUUUUUGCAAAAGAAAUAUUAAAUGAUUUAGCAGUCUCCACGUGUGUUAAUGUUUCAAACGUGUAUCAUAAUGUGUAUAAUUGUGUAACCAACAGAGGAUUGAGCAUCA
# Biological target: MSI1 full-length (mouse, UniProt Q61474 1-362)
# Sequence of UniProt Q61474 (Q61474 whole entry): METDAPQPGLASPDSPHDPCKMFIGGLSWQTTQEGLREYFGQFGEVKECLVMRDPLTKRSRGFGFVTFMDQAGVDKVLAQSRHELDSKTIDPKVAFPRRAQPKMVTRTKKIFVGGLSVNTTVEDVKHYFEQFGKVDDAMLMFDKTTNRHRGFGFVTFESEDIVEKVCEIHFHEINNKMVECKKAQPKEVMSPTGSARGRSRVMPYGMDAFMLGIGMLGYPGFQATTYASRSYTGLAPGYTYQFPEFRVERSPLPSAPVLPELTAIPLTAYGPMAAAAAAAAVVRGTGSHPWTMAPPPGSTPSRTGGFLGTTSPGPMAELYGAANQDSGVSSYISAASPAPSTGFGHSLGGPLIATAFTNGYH
# Test: nsRBNS (natural sequence RNA bind-n-seq); RBNS binding buffer (assumed for nsRBNS): 25 mM Tris pH 7.5, 150 mM KCl, 3 mM MgCl2, 0.01% Triton X-100, 500 ug/ml BSA, 20 U/ml SUPERase-In, 4 C; UNK is unkempt and MSI1 is Musashi-1; names of the RNAs are library labels; protein concentration not given here; high values mean tight binding
row,Binder,binding signal [enrichment R]
1,B1,0.46
2,B2,0.408
3,B3,0.491
4,B4,0.966
5,B5,1.57
6,B6,0.427
7,B7,0.444
8,B8,14.2
9,B9,1.22
10,B10,0.702
11,B11,0.561
12,B12,0.329
13,B13,0.693
14,B14,0.604
15,B15,0.408
16,B16,0.962
17,B17,0.983
18,B18,2.37
19,B19,0.454
20,B20,9.19
21,B21,0.843
22,B22,0.77
